# Data published in US7598354 (NATIONAL RESEARCH COUNCIL OF CANADA, dated 2009).
# T1: Cj1181c, translation elongation factor EF-Ts (Tsf) (Campylobacter jejuni NCTC 11168, UniProt Q9PNB4 1-357)
# T1 sequence: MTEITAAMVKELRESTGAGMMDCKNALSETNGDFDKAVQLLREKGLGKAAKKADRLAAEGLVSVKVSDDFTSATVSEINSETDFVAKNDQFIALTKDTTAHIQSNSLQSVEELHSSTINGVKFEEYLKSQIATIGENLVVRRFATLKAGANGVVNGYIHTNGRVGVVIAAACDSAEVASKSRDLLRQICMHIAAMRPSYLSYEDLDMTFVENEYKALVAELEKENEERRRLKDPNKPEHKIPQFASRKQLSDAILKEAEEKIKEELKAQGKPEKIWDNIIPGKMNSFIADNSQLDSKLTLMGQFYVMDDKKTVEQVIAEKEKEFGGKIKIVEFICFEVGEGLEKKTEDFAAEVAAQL
# Target: T1, Cj1181c, translation elongation factor …
# Assay: Western blot of 2D gel probed with SBA-alkaline phosphatase conjugate
binder,measurement,value
"soybean agglutinin (SBA)-alkaline phosphatase conjugate (other, conjugated to alkaline phosphatase (EY Laboratories), Lectin; Alkaline phosphatase part not described; also called GalNAc-specific lectin; SBA lectin) AETVSFSWNKFVPKQPNMILQGDAIVTSSGKLQLNKVDENGTPKPSSLGRALYSTPIHIWDKETGSVASFAASFNFTFYAPDTKRLADGLAFFLAPIDTKPQTHAGYLGLFNENESGDQVVAVEFDTFRNSWDPPNPHIGINVNSIRSIKTTSWDLANNKVAKVLITYDASTSLLVASLVYPSQRTSNILSDVVDLKTSLPEWVRIGFSAATGLDIPGESHDVLSWSFASNLPHASSNIDPLDLTSFVLHEAI",binding result,no binding (tested: 10 µg/mL)
